Measurements: PubChem BioAssay AID493208 (National Center for Advancing Translational Sciences (NCATS), 2011)
Among all 44,000 compounds or so, about 340 (0.77%) were called active. About 5% were inconclusive and are not listed. The call rests on the fitted dose curve; in most records, active means well fitted inhibition curve with a large enough effect; inconclusive means small, poorly fitted or top-dose-only effect; inactive means flat fitted curve, though single readings scatter. Some of the results follow.

Test: Acumen qHTS Assay for Inhibitors of the mTORC1 Signaling Pathway in MEF (Tsc2-/-, p53-/-) Cells: Sytravon;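 further: plate controls were DMSO for no effect and rapamycin for full effect; nearly all actives have a fitted effect of over 50% in size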
Conditions: phospho-rpS6 immunofluorescence/PI, 24 h; series mostly up to 38.3 µM; activity change, negative = inhibition: at the top concentration
In short: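 Plate MEFs (Tsc2-/-, p53-/-, empty vector) in DMEM/10% FBS; after 24 h add compound, incubate 24 h at 37 degree Celsius; fix in PFA/TX-100, block, stain phospho-rpS6 and 10 uM PI; scan at 488 nm; report % positive cells.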

Activity change, negative = inhibition, inactive:
CCc1ccc(NC(=O)CN2C(=O)CCSc3ccc(S(=O)(=O)N4CCCC4)cc32)cc1 2.43%, COc1ccc(C(=O)c2cn(Cc3cccc(C)c3)c3cc4c(cc3c2=O)OCCO4)cc1OC -8.48%, Cc1nn2c(=O)cc(COC(=O)c3ccc(F)cc3)nc2s1 0.712%, Cc1ccc(N(C(=O)c2cccc(C)c2)S(=O)(=O)c2ccc(Cl)cc2)cc1 -11.4%, COc1ccc(CCNC(=O)Cn2ccc3cc(S(=O)(=O)N4CCCCC4)ccc32)cc1OC -2.65%, COC(=O)c1ccccc1NC(=O)c1cc(=O)c2ccc(C)c(C)c2o1 0.224%, Cn1nnnc1SCCCNCc1ccccc1OCc1ccccc1F -10.9%, O=S(=O)(c1ccc2[nH]c3c(c2c1)CCCCC3)N1CCN(c2ccccc2)CC1 5.27%, COc1cccc(CNC(=O)c2cc(-c3cccc(OC)c3)n[nH]2)c1 -1.05%, O=C(CCn1cnc2ccccc2c1=O)NCc1ccccc1 -4.5%, Cc1ccc(N2CCN(C(=O)CCc3c(C)nc4c(c3C)c(=O)n(C)c(=O)n4C)CC2)c(C)c1 6.15%, Cc1cccc(C)c1NC(=O)c1oc2c(c1C)-c1nn(Cc3ccccc3)cc1CC2 3.05%, CCCSCCCNC(=O)CN1C(=O)COc2ccc(S(=O)(=O)N3CCC(C)CC3)cc21 4.71%, COc1cc(OC)c(N(C)C(=O)c2nn(C)c3c2CSc2ccccc2-3)cc1Cl -4.82%, CN1C(=O)Cc2cc(S(=O)(=O)CCC(=O)Nc3ccccc3)ccc21 -3.81%, CCN(CC)CCCNC(=O)Cn1nc(N2CCN(c3ccccc3OC)CC2)ccc1=O -9.16%, Cc1nc2c(C(=O)N(C)Cc3ccccc3)c[nH]n2c(=O)c1Cc1ccc(Cl)cc1 -21%, Cc1ccc(Cl)cc1N1CCN(C(=O)c2ccc3c(c2)N(Cc2ccccc2F)C(=O)c2ccccc2S3(=O)=O)CC1 -10.5%, O=C(NCC(c1ccccc1)c1ccccc1)c1nn(-c2ccccc2Cl)nc1CO -3.69%, CCOc1ccccc1NC(=O)c1sc(-n2nc(C)c(CCC(C)C)c2C)nc1C -10.6%, CCc1ccc(S(=O)(=O)Nc2ccc(-c3ccc(N4CCCCCC4)nn3)cc2)cc1 -4.54%, CCCCOc1ccc(S(=O)(=O)N2CCN(c3ccccc3OCC)CC2)cc1 0.43%, COc1ccc(Cl)cc1NC(=O)CN(C)S(=O)(=O)c1ccc(Br)s1 1.4%, Cc1cc(C)c2oc(-c3cccc(NC(=O)c4ccco4)c3)nc2c1 8.91%, CCC1CCCCN1CCCNC(=O)CN1C(=O)CSc2ccc(S(=O)(=O)N3CCC(C)CC3)cc21 (stereo unspecified) -21%, Cc1cc2c(c3oc(=O)c4ccccc4c13)CN(Cc1ccc(F)cc1)CO2 -0.117%, COCCCNC(=O)CCC(=O)N1Cc2ccccc2Oc2ncccc21 -8.84%, O=C(Nc1cccc(Cl)c1)Nc1ccccc1OCc1cc(=O)n2ccccc2n1 1.42%, Cc1ccc(CNC(=O)Cn2ccn(-c3ccc(C)c(C)c3)c(=O)c2=O)cc1 5.45%, CN(C)c1ccc(CNC(=O)CN(C)S(=O)(=O)c2ccc3c(c2)c(=O)n(C)c(=O)n3C)cc1 -14.6%, Cc1ccc(CNC(=O)CN(c2ccc(Cl)cc2Cl)S(=O)(=O)c2ccccc2)cc1 1.74%, COc1cccc(C(=O)Nc2c(C(=O)NC(C)(C)C)oc3ccccc23)c1 -16.7%, Cc1ccc(CCNC(=O)Cn2c(-c3cccs3)cc3cc(F)ccc32)cc1 -15.1%, CCc1cccc2sc(N3CCN(C(=O)c4cc5ccccc5cc4OC)CC3)nc12 -12.8%, CCc1cccc(NC(=O)Cn2c(=O)n(CCc3ccc(OC)c(OC)c3)c(=O)c3ccccc32)c1 -5.49%, COc1ccc(CC(=O)NCc2ccc3c(c2)CCN3C(=O)c2ccc(C)cc2)cc1OC -7.22%, O=C(Cn1ncc2c(=O)oc3ccccc3c21)NCc1ccccc1Cl 4.65%, O=C(Cn1ncc2c3ccccc3n(Cc3ccccc3F)c2c1=O)NCCc1ccc(Cl)cc1 -0.368%, CCOC(=O)c1c(C)[nH]c(C)c1S(=O)(=O)N1CCCC(C(=O)Nc2ccc(OC)c(Cl)c2)C1 (stereo unspecified) 1.05%, COc1cccc(CNC(=O)CSc2c3c(nc4ccc(Cl)cc24)CCCC3)c1OC -25.6%, CC1=C(C(=O)Nc2ccc(C)cc2C)C(c2ccc(Cl)cc2)n2nc(C(=O)OC(C)C)nc2N1 (stereo unspecified) -14.5%, CCc1ccc(NC(=O)c2cc3sc(Cl)cc3n2C)cc1 -3.49%, O=C(Cn1cnc(S(=O)(=O)N2CCCC2)c1)Nc1ccc(OC(F)(F)F)cc1 -7.23%, Cc1ccccc1Nc1nnc(-c2ccc(C)c(S(=O)(=O)N3CCOCC3)c2)c2ccccc12 5.15%, COc1ccc(OC)c(NC(=O)Cn2cnc3c(oc4ccccc43)c2=O)c1 10.5%, COc1ccc(CN2COc3ccc4c(-c5ccccc5)cc(=O)oc4c3C2)cc1 -11.9%, CCOC(=O)c1cc(-c2ccccc2)n(CC(=O)Nc2ccc(OC)cc2OC)c1C -7.83%, CCOc1ccc(NC(=O)C2CCN(S(=O)(=O)c3cc(-c4noc(C)n4)ccc3C)CC2)cc1 0.196%, CC(C)CC(=O)NCc1nc2cccnc2n1Cc1ccccc1 0.841%, Cc1ccccc1CNC(=O)c1ccc(Cn2c(SCc3cccc(F)c3)nc3cccnc32)cc1 -6.68%, CCOC(=O)c1nc(Nc2ccc(C(=O)OCC(C)C)cc2)c2ccccc2n1 -15.6%, O=C(CCc1cn(Cc2ccccc2F)c2ccccc12)NCc1ccc(Cl)cc1 -10.8%, Cc1ccc2oc(C(=O)N(Cc3cccc(F)c3)C3CCS(=O)(=O)C3)c(C)c2c1 (stereo unspecified) 3.02%, COc1ccc(N2CCN(C(=O)c3cc(S(=O)(=O)N4CCCCCC4)cn3C)CC2)cc1 -2.13%, COc1cccc(NC(=O)N2CCC(n3c(C)nc4cccnc43)CC2)c1 0%, O=C(NCc1ccccc1Cl)C1CCC(CNS(=O)(=O)c2ccc(Cl)cc2)CC1 (stereo unspecified) -3.25%, COc1cccc(Cn2c(=O)n(-c3ccc(C)c(F)c3)c(=O)c3sc4ccccc4c32)c1 -3.47%, COc1ccc(CNC(=O)C2CCN(Cc3nc(-c4ccc(OC)c(OC)c4)oc3C)CC2)cc1 4.66%, Cc1ccc(-c2cc(C(F)(F)F)n3nc(-c4ccc(Cl)cc4)cc3n2)cc1 -21%, COc1cccc(OC)c1C(=O)Nc1nnc(C)s1 12.6%, O=C(COC(=O)C(Cc1c[nH]c2ccccc12)NC(=O)c1ccc(Br)cc1)c1ccc(Cl)cc1 (stereo unspecified) -2.63%
